# Measured values published in the supplement of paper PMC9446081.
# About 220 (0.56%) of roughly 39,000 compounds showed activity. Some of the results follow.
# System: Escherichia coli K-12 BW25113
# Experiment: relative growth (OD600 normalised to plate interquartile mean) (fraction); higher = less growth inhibition, active = 0.2 or less
# Conditions: 50 µM; LB; incubation time: overnight (16-24 h)
# 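Note: static incubation at 37 °C against the wild-type strain, values averaged over two biological replicates.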
row,SMILES,relative growth
1,C[C@H]1CN([C@@H](C)CO)C(=O)CCCn2cc(nn2)CO[C@@H]1CN(C)C(=O)Nc1ccnc(N2CCOCC2)c1,inactive: 0.989
2,CN(C)CC(=O)N1CC(=O)N2[C@H](CO)[C@@H](c3ccc(C#Cc4cccnc4)cc3)[C@H]2C1,inactive: 0.995
3,C[C@@H]1CCCCO[C@@H](CN(C)Cc2ccc(C(=O)O)cc2)[C@@H](C)CN([C@H](C)CO)C(=O)c2cc(NC(=O)Nc3ccc(F)cc3)ccc2O1,inactive: 1
4,Cc1ccc(S(=O)(=O)N(C)C[C@H]2Oc3c(NS(=O)(=O)c4cccs4)cccc3C(=O)N([C@@H](C)CO)C[C@H]2C)cc1,inactive: 1
5,COC(=O)C=CC(C)=CC=CC(C)=CC=CC=C(C)C=CC=C(C)C=CC(=O)O,inactive: 1.02
6,CN(C)CCCNC(=O)C[C@@H]1CC[C@@H]2[C@H](COc3ccc(NS(C)(=O)=O)cc3C(=O)N2C)O1,inactive: 1
7,COc1ccc(S(=O)(=O)N(C)C[C@@H]2Oc3ccc(NC(=O)NC(C)C)cc3C(=O)N([C@H](C)CO)C[C@@H]2C)cc1,inactive: 1.02
8,COc1ccc(NC(=O)N(C)C[C@H]2Oc3c(NC(=O)c4cnccn4)cccc3C(=O)N([C@@H](C)CO)C[C@@H]2C)cc1,inactive: 0.961
9,IC(I)I,inactive: 0.575
10,CN1C(=O)c2ccccc2C1=O,inactive: 0.984
11,Cc1nn2cc(CN)nc2s1,inactive: 1.01
12,O=C(C[C@H]1C[C@@H]2c3cc(NC(=O)c4cccnc4)ccc3O[C@@H]2[C@@H](CO)O1)NCc1cc(F)ccc1F,inactive: 0.977
13,Cn1cnc(S(=O)(=O)N[C@@H]2C=C[C@@H](CC(=O)N3CCN(c4ccccc4)CC3)O[C@H]2CO)c1,inactive: 1.01
14,C[C@@H]1CN([C@H](C)CO)C(=O)c2cccc(NC(=O)Nc3cccc4ccccc34)c2O[C@@H]1CN(C)C(=O)Nc1ccc(C(F)(F)F)cc1,inactive: 0.984
15,CCNC(=O)C[C@@H]1CC[C@H]2[C@@H](COC[C@@H](O)CN2C(=O)Nc2c(C)noc2C)O1,inactive: 1.01
16,C[C@H]1CN([C@@H](C)CO)C(=O)c2cccc(NC(=O)Nc3ccc(C(F)(F)F)cc3)c2O[C@H]1CN(C)Cc1ccc(C(F)(F)F)cc1,inactive: 1.01
17,Cc1ccc(N2CCC[C@]3(CCNC3=O)C2)nn1,inactive: 1.01
18,CC(=O)CNC(=O)Cc1ccccc1,inactive: 1
19,C[C@@H]1CCCCO[C@@H](CN(C)C(=O)Nc2ccc(C(F)(F)F)cc2)[C@@H](C)CN([C@H](C)CO)C(=O)c2cc(NC(=O)Nc3ccc(C(F)(F)F)cc3)ccc2O1,inactive: 0.999
20,C[C@@H]1CN([C@H](C)CO)C(=O)CCCn2cc(nn2)CO[C@@H]1CN(C)S(=O)(=O)c1ccc(Oc2ccccc2)nc1,inactive: 1.01
21,Cc1noc(C)c1NC(=O)N(C)C[C@H]1Oc2ccc(NC(=O)Cn3cnnn3)cc2CC(=O)N([C@H](C)CO)C[C@H]1C,inactive: 0.994

row,SMILES,relative growth
1,COc1cccc(NC(=O)N[C@@H]2C=C[C@H](CC(=O)N3CCOCC3)O[C@H]2CO)c1,inactive: 0.989
2,O=C([O-])P(=O)([O-])[O-].[Na+].[Na+].[Na+],inactive: 1.03
3,C[C@@H]1CCCCO[C@H](CN(C)C(=O)c2ccncc2)[C@@H](C)CN([C@H](C)CO)C(=O)c2cc(NS(=O)(=O)c3ccc(Cl)cc3)ccc2O1,inactive: 0.958
4,Cc1ccc(S(=O)(=O)N(C)C[C@H]2Oc3c(NC(=O)c4ccncc4)cccc3C(=O)N([C@H](C)CO)C[C@@H]2C)cc1,inactive: 0.97
5,COc1ccc(-c2cnc3c(c2)C(=O)N([C@@H](C)CO)C[C@@H](C)[C@@H](CN(C)S(=O)(=O)c2ccc(OC)cc2)O3)cc1,inactive: 1.01
6,Cc1noc(C)c1NC(=O)Nc1ccc2c(c1)C(=O)N([C@H](C)CO)C[C@H](C)[C@@H](CN(C)Cc1ccc(C(F)(F)F)cc1)OCCCC[C@@H](C)O2,inactive: 1.03
7,Cc1ccc(S(=O)(=O)N(C)C[C@@H]2Oc3ccc(N(C)C)cc3CC(=O)N([C@H](C)CO)C[C@H]2C)cc1,inactive: 1
8,Cc1noc(C)c1S(=O)(=O)N(C)C[C@@H]1Oc2ccc(NC(=O)CCC(F)(F)F)cc2CC(=O)N([C@H](C)CO)C[C@H]1C,inactive: 1.03
9,CC(C)NC(=O)Nc1ccc2c(c1)C(=O)N([C@H](C)CO)C[C@H](C)[C@@H](CN(C)S(=O)(=O)c1cn(C)cn1)O2,inactive: 1.01
10,C[C@@H]1CN([C@H](C)CO)C(=O)c2cccc(NC(=O)c3nc4ccccc4s3)c2O[C@H]1CN(C)Cc1ccc(C(F)(F)F)cc1,inactive: 0.969
11,Cc1noc(C)c1NC(=O)Nc1ccc2c(c1)C(=O)N([C@H](C)CO)C[C@@H](C)[C@H](CN(C)S(=O)(=O)c1ccc(Cl)cc1)OCCCC[C@@H](C)O2,inactive: 0.863
12,C[C@@H]1CN([C@H](C)CO)S(=O)(=O)c2ccc(C#CC3CCCCC3)cc2O[C@H]1CN(C)C(=O)Cc1ccncc1,inactive: 0.974
13,CNC(=O)C(=O)NCCc1c[nH]c2ccccc12,inactive: 1.04
14,Nc1nc2ccc(OC(F)(F)F)cc2s1,inactive: 0.943
15,COc1ccc(S(=O)(=O)N[C@@H]2CC[C@@H](CCNC(=O)CN3CCOCC3)O[C@H]2CO)cc1,inactive: 1
16,CCC[C@@H](O)C#Cc1cnc2c(c1)C(=O)N([C@H](C)CO)C[C@H](C)[C@H](CN(C)C(=O)Nc1ccc3c(c1)OCO3)O2,inactive: 0.895
17,C[C@@H]1CN([C@H](C)CO)C(=O)c2cc(NC(=O)CCN3CCOCC3)ccc2O[C@H]1CN(C)S(=O)(=O)c1ccc(Cl)cc1,inactive: 0.987
18,Cc1csc2sc(COC(=O)Nc3ccccc3)c(C)c12,inactive: 0.934
19,C[C@H](CO)N1C[C@H](C)[C@@H](CN(C)Cc2ccc(Cl)c(Cl)c2)Oc2c(NC(=O)C3CCCCC3)cccc2C1=O,inactive: 0.952
20,CC(=O)N(C)C[C@@H]1Oc2cc(C#CCN(C)C)ccc2S(=O)(=O)N([C@H](C)CO)C[C@@H]1C,inactive: 1.04
21,COc1cccc(S(=O)(=O)N(C)C[C@H]2Oc3ncc(C#CCC(C)C)cc3C(=O)N([C@H](C)CO)C[C@H]2C)c1,inactive: 0.993
